# Results taken from a collection of fitness landscapes (doi:10.1016/j.celrep.2020.107928).
# Over roughly 81,000 sequences, “one-hybrid fitness for binding parS DNA” has its median near -0.17; the highest 2% begin near 0.51. Some of the results follow.
# B1: Caulobacter ParB omega fusion; a variant is named by its letters at X, in order, B8GW30 (parent)
# chain: MESVVVGEPGMSEGRRGLGRGLSALLGEVDAAPAQAPGEQLGGSREAPIEILQRNPDQPRRTFREEDLEDLSNSIREKGVLQPILVRPSPDTAGEYQIVAGERAWRAAQRAGLKTVPIMVRELDDLAVLEIGIIENVQRADLNVLEEALSYKVLMEKFERTQENIAQTIGKSXSHVANXMRLLXLPDEVQSYLVSGELTAXHARAIAAAADPVALAKQIIEGGLSVRETEALARKAPNLSAGKSKGGRPPRVKDTDTQALESDLSSVLGLDVSIDHRGSTGTLTITYATLEQLDDLCNRLTRGI
# Variants of: B1
# Assay: one-hybrid fitness for binding parS DNA (scaled: cognate 1, non-cognate 0); higher = stronger binding
# Settings: with parS DNA site
# Method in brief: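 Caulobacter ParB libraries with four specificity codons randomised were screened by bacterial one-hybrid selection in the E. coli USO strain, using a HIS3 reporter whose site lies 19 bp from the promoter. Selection ran for 48 hours at 37°C on M9 lacking histidine, with 0.1 mM IPTG and 5 mM 3-AT. Plasmids were Illumina-sequenced before and after selection, three replicate libraries were pooled, and variants with under 10 reads were dropped. Fitness is the log change in each variant's read ratio to wild type, rescaled against the cognate and non-cognate sites.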
row,Variant,one-hybrid fitness for binding parS DNA
1,AERV,≤ 0.2
2,CPPM,≤ 0.2
3,ALYI,≤ 0.2
4,EHVG,≤ 0.2
5,GIIR,≤ 0.2
6,TRHK,≤ 0.2
7,VFKQ,≤ 0.2
8,RKFA,0.549
9,WAAT,≤ 0.2
10,TVKS,≤ 0.2
11,CANQ,≤ 0.2
12,YTHW,≤ 0.2
13,VPFH,≤ 0.2
14,SYKY,≤ 0.2
15,EPNS,≤ 0.2
16,ITTP,≤ 0.2
17,NKSG,≤ 0.2
18,KDSV,≤ 0.2
19,FVIG,≤ 0.2
20,VWGG,≤ 0.2
21,WTVS,≤ 0.2
22,EYRD,≤ 0.2
23,LETI,≤ 0.2
24,MVVR,≤ 0.2
25,MPCL,≤ 0.2
26,IVCD,≤ 0.2

row,Variant,one-hybrid fitness for binding parS DNA
1,RNRV,≤ 0.2
2,NRSL,≤ 0.2
3,GVKC,≤ 0.2
4,ESYN,≤ 0.2
5,ESTK,≤ 0.2
6,IWVC,≤ 0.2
7,NCVF,≤ 0.2
8,WMNS,≤ 0.2
9,HAGH,≤ 0.2
10,QGYF,≤ 0.2
11,LNQS,≤ 0.2
12,MGEC,≤ 0.2
13,TRYW,≤ 0.2
14,VNVH,≤ 0.2
15,ILKR,≤ 0.2
16,ALTN,≤ 0.2
17,IIER,≤ 0.2
18,RMEK,≤ 0.2
19,QAWM,≤ 0.2
20,AYVI,≤ 0.2
21,HTPL,≤ 0.2
22,MVAQ,≤ 0.2
23,PIEF,≤ 0.2
24,VIGF,≤ 0.2
25,VGPP,≤ 0.2
26,TNHW,≤ 0.2

row,Variant,one-hybrid fitness for binding parS DNA
1,RLWW,0.245
2,QYSQ,≤ 0.2
3,VLAN,≤ 0.2
4,TLAD,≤ 0.2
5,LPFM,≤ 0.2
6,ASMP,≤ 0.2
7,MLTY,≤ 0.2
8,DPRC,≤ 0.2
9,ICMS,≤ 0.2
10,DTSG,≤ 0.2
11,IPVV,≤ 0.2
12,NVTL,≤ 0.2
13,RRDT,0.648
14,ELGV,≤ 0.2
15,NIHT,≤ 0.2
16,PRPW,≤ 0.2
17,QDRY,≤ 0.2
18,HVSA,≤ 0.2
19,NTQR,≤ 0.2
20,VFSK,≤ 0.2
21,LHAI,≤ 0.2
22,SGQK,≤ 0.2
23,GQTM,≤ 0.2
24,YNGS,≤ 0.2
25,IPSS,≤ 0.2
26,QTPY,≤ 0.2

row,Variant,one-hybrid fitness for binding parS DNA
1,CKPD,≤ 0.2
2,GNTA,≤ 0.2
3,PMKC,≤ 0.2
4,PKTS,≤ 0.2
5,LQPY,≤ 0.2
6,ACRM,≤ 0.2
7,MHRG,≤ 0.2
8,MYPV,≤ 0.2
9,RTYW,0.262
10,MKPG,≤ 0.2
11,AGDQ,≤ 0.2
12,SPMS,≤ 0.2
13,CIHT,≤ 0.2
14,NALC,≤ 0.2
15,QPAM,≤ 0.2
16,RVWY,0.49
17,PTED,≤ 0.2
18,PRIW,≤ 0.2
19,KAGL,≤ 0.2
20,PFTY,≤ 0.2
21,CRTD,≤ 0.2
22,VCLK,≤ 0.2
23,GSYS,≤ 0.2
24,VSRY,≤ 0.2
25,WVTG,≤ 0.2
26,SPKS,≤ 0.2

row,Variant,one-hybrid fitness for binding parS DNA
1,CKYG,≤ 0.2
2,TCDS,≤ 0.2
3,RCTN,0.475
4,GFEG,≤ 0.2
5,KQRT,≤ 0.2
6,RMSL,≤ 0.2
7,YDLR,≤ 0.2
8,YGAT,≤ 0.2
9,TNAM,≤ 0.2
10,PLAQ,≤ 0.2
11,PFHS,≤ 0.2
12,GYMF,≤ 0.2
13,QLRR,≤ 0.2
14,DDRL,≤ 0.2
15,NERL,≤ 0.2
16,VMTF,≤ 0.2
17,IYTA,≤ 0.2
18,KNKM,≤ 0.2
19,MIMG,≤ 0.2
20,GANL,≤ 0.2
21,YPDW,≤ 0.2
22,AQSE,≤ 0.2
23,TTRH,≤ 0.2
24,MHPG,≤ 0.2
25,FGGI,≤ 0.2
26,LYAF,≤ 0.2

row,Variant,one-hybrid fitness for binding parS DNA
1,TEWV,≤ 0.2
2,RKAQ,≤ 0.2
3,ASPK,≤ 0.2
4,RMRH,0.261
5,NRMY,≤ 0.2
6,PITC,≤ 0.2
7,GWFS,≤ 0.2
8,LMTV,≤ 0.2
9,IDTI,≤ 0.2
10,QSFP,≤ 0.2
11,LTGN,≤ 0.2
12,TPVP,≤ 0.2
13,GKEC,≤ 0.2
14,HLCP,≤ 0.2
15,QMWS,≤ 0.2
16,GVFS,≤ 0.2
17,YSQS,≤ 0.2
18,LSWT,≤ 0.2
19,MNRS,≤ 0.2
20,VNSC,≤ 0.2
21,LKWR,≤ 0.2
22,KHNG,≤ 0.2
23,CHLN,≤ 0.2
